Measurements from PubChem BioAssay (Tox21).
Where “and” joins values, the source holds several entries; their conditions need not be identical. Equal entries are not always repeated. This list was built around the results that the source calls inconclusive (neither active nor inactive); the mix of calls is not that of the screen. A potency beside an inconclusive call is a rough fit, not a confirmed value. Calls of active or inactive are those of the source. The call rests on the fitted dose curve; in most records, active means well fitted cell-killing curve with a large enough effect in the repeat runs; inconclusive means weak or mixed curves; inactive means flat fitted curve, though single readings scatter.

Assay: qHTS assay to identify small molecule antagonists of the estrogen related receptor (ERR) signaling pathway from Tox21 library - cell viability counter screen (AID 1224834); further: nearly all actives have a fitted effect of over 30% in size
Details: ERR reporter cells viability, CellTiter-Fluor, 17.5 h; series mostly up to 92.4 µM
Source text: National Center for Advancing Translational Sciences [NCATS]
NIH Chemical Genomics Center [NCGC]
U.S. Environmental Protection Agency [EPA]
National Institutes of Environmental Health Sciences [NIEHS]
National Toxicology Program [NTP]
U.S. Food and Drug Administration [FDA]
Estrogen related receptors (ERRs), the first orphan nuclear receptors discovered, play an important role in the control of cellular energy metabolism. ERRs are required for high-energy production in response to the environmental challenges. ERR-alpha was also identified as an adverse marker for breast cancer progression; ERR-alpha-positive tumors have a poor prognosis. To screen and to identify environmental compounds that perturb the ERR signaling pathways could provide valuable information for potential therapeutic or preventive measures in the treatment of metabolic disease. To differentiate true ERR antagonists or agonist from cytotoxic substances, the assay is multiplexed with cell viability assay.
Tox21 Assay Protocol Summary:
The ERR cells were dispensed at 2,000 cells/5 ul/well in 1536-well white plates using a Multidrop dispenser. After the assay plates were incubated at a 37 C/5% CO2 incubator for 6 hours, 23 nL of compounds dissolved in DMSO, positive and negative controls or DMSO only was transferred to the assay plate by a pin tool. The plates were incubated at 37 C for 17.5 hours. 1 ul/well of CellTiter-Fluor reagent was added into the assay plates using a Flying Reagent Dispenser. After 30-minute incubation at 37 C/5% CO2, the fluorescence intensity in the plates was measured using a ViewLux plate reader.
On the % scale 0 is the no-effect control and ±100 the full control effect; potency means the concentration at half of the fitted maximal effect; tags describe the fitted curve by direction and shape.

| SMILES | Potency | viability change, negative = cytotoxic |
| --- | --- | --- |
| Nc1ccc(NCCO)c([N+](=O)[O-])c1 | active: 48.6 µM | – |
| O=Cc1ccc(Cl)c([N+](=O)[O-])c1 | inconclusive: 61.1 µM [cytotoxic, single point] | – |
| CCCc1ccc(OCC(=O)N2CCN(C(=O)COc3ccc(CCC)cc3OC)CC2)c(OC)c1 | inconclusive: 11.9 µM [cytotoxic, partial curve, poor fit] | – |
| NC(=O)C(c1ccccc1)(c1ccccc1)[C@@H]1CCN(CCc2ccc3c(c2)CCO3)C1 | inactive | – |
| CC1C2CC(CC2C2CCCC(O)C2)C1(C)C (stereo not given) | inconclusive: 77 µM [cytotoxic, single point] | – |
| CNC[C@H](O)c1ccc(O)c(O)c1 | inconclusive: 61.2 µM [cytotoxic, partial curve, poor fit] | – |
| COc1c(C)c2c(c(O)c1C/C=C(\C)CCC(=O)OCCN1CCOCC1)C(=O)OC2 | inconclusive: 1.19 µM [cytotoxic, full curve] | – |
| CCCCC1(COC(=O)CCC(=O)O)C(=O)N(c2ccccc2)N(c2ccccc2)C1=O | inactive | – |
| O=Nc1ccc(O)cc1 | inconclusive: 33.6 µM [cytotoxic, partial curve] | – |
| NC(=O)N(O)[C@@H]1COc2cc(OCc3ccccc3)ccc21 | inconclusive: 21.7 µM [cytotoxic, full curve] | – |
| C=CC(C)(C)CC(=O)OC | active: 1.22 µM | – |
| O=S(=O)(O)c1ccc(Cl)cc1 | inactive | – |
| CN(C)CC/C=C1\c2ccccc2Sc2ccc(Cl)cc21 | inconclusive: 33.5 µM [cytotoxic, single point] | – |
| CCCC(=O)OC(=O)CCC | inactive | – |
| CC(=O)c1ccc2c(c1)[C@H](NC(=O)c1ccc(F)cc1)[C@@H](O)C(C)(C)O2 | inconclusive: 25.7 µM [cytotoxic, partial curve] | – |
| c1cc(N(CC2CO2)CC2CO2)ccc1Cc1ccc(N(CC2CO2)CC2CO2)cc1 (stereo not given) | active: 43.3 µM | – |
| C=CC(C)(CCC=C(C)C)OC=O (stereo not given) | inactive | – |
| CC(CC=O)c1ccccc1 (stereo not given) | inactive | – |
| O=Cc1cccc(Br)c1 | inactive | – |
| C=C1CC[C@H](O)CC1=C/C=C1\CCC[C@]2(C)[C@@H]([C@H](C)/C=C/[C@H](C)C(C)C)CC[C@@H]12 | inconclusive: 27.1 µM [cytotoxic, full curve] and inconclusive: 61.1 µM [cytotoxic, partial curve] | – |

| SMILES | Potency | viability change, negative = cytotoxic |
| --- | --- | --- |
| COCCOC(=O)C1=C(C)NC(C)=C(C(=O)OC/C=C/c2ccccc2)C1c1cccc([N+](=O)[O-])c1 (stereo not given) | inconclusive: 29.8 µM [cytotoxic] | – |
| C[C@H]1NCc2cc(-c3ccc4c(=O)c(C(=O)O)cn(C5CC5)c4c3OC(F)F)ccc21 | – | inactive: -0.362% [at 19 µM] |
| CC[C@H](NC(=O)c1cc(F)ccc1NS(=O)(=O)c1cccc2cccnc12)c1ccccc1 | inconclusive: 57.9 µM [cytotoxic, partial curve] | – |
| CC(C)C(OC(=O)c1ccccc1)C(C)(C)COC(=O)c1ccccc1 (stereo not given) | inactive | – |
| C=CC(=O)NC(C)C | inactive | – |
| Cc1ccc(S(=O)(=O)NC2CCCCC2)cc1 | inconclusive: 68.1 µM [cytotoxic, single point] | – |
| Cc1cc(C(C#N)c2ccc(Cl)cc2)c(Cl)cc1NC(=O)c1cc(I)cc(I)c1O (stereo not given) | inconclusive: 33.5 µM [cytotoxic, single point] | – |
| O=C(O)CCC(=O)c1ccc(-c2ccccc2)cc1 | inactive | – |
| Nc1ccc(N=Nc2ccc(N)cc2)cc1 | active: 27.3 µM | – |
| CC[C@@H]([C@H](C)O)n1ncn(-c2ccc(N3CCN(c4ccc(OC[C@@H]5CO[C@@](Cn6cncn6)(c6ccc(F)cc6F)C5)cc4)CC3)cc2)c1=O | active: 9.44 µM | – |
| C/C=C\C/C=C/CCCCCCCCOC(C)=O | inconclusive: 54.5 µM [cytotoxic, partial curve, poor fit] | – |
| Cc1cccc(S(=O)(=O)O)c1C | inactive | – |
| O=Cc1ccc(O)c(O)c1O | inconclusive: 33.5 µM [cytotoxic, partial curve, poor fit] | – |
| Cc1ccc2c(c1[N+](=O)[O-])C(=O)c1ccccc1C2=O | inconclusive: 15.1 µM [cytotoxic, partial curve, poor fit] | – |
| COC1=CC(=O)C[C@@H](C)[C@]12Oc1c(Cl)c(OC)cc(OC)c1C2=O | inconclusive: 19.2 µM [cytotoxic, full curve] and inconclusive: 30.6 µM [cytotoxic] and inconclusive: 29.8 µM [cytotoxic, partial curve, poor fit] | – |
| COC(=O)CCc1ccc(OCC(O)CNC(C)C)cc1 (stereo not given) | inactive | – |
| COc1ccc(C(=O)c2ccccc2O)c(O)c1 | inconclusive: 68.4 µM [cytotoxic, single point] | – |
| COc1nc(C)nc(N)n1 | inactive | – |
| Nc1nc2ccc(OC(F)(F)F)cc2s1 | inconclusive: 66.8 µM [cytotoxic, partial curve, poor fit] | – |
| CC(=O)CCC1=C(C)CCCC1(C)C | inactive | – |
